GI50 and TGI data for 38 compounds are collected here from PubChem BioAssay (NCI).

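Cells were grown in 96-well plates and exposed to each compound for 48 hours at five concentrations; endpoints were interpolated linearly between bracketing concentrations, or set to the highest concentration if not reached. At the GI50, growth is halved. TGI marks complete inhibition of growth.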

The test deals with NCI-H322M lung. In words: inhibition of tumour cell growth, NCI panel, 48 h.
In the case of `O=C1/C(=C/c2ccc([N+](=O)[O-])s2)Oc2ccc(Cl)cc21`, the GI50 was 1.43 µM and the TGI stood at 4.92 µM.

With `CC(C)(C)OC(=O)N(CCCN)CCCCN(CCCN)C(=O)OC(C)(C)C`, the TGI was > 100 µM.

`COC(=O)[C@H]1ON2O[C@H](OC3CCCC[C@@H]3c3ccccc3)C[C@@H]3CC[C@H]1[C@@]32C` (stereo not given in full): the TGI is > 100 µM.

Take `C/C(=C1/N=C(c2ccccc2)OC1=O)c1cccs1`: the TGI is > 100 µM.

Consider `N#Cc1ccccc1C#C/C=C\C#Cc1cnccn1`, for which the GI50 is 36.9 µM and the TGI was > 90.9 µM.

Consider `CN1CCN(Cc2ccc(NC(=O)c3cncc(C#Cc4c(N)ncc5ccc(F)cc45)c3)cc2C(F)(F)F)CC1`, for which the GI50 was 1.32 µM and the TGI was 7.49 µM.

For the compound `COc1ccc(C2CC(c3cccc(Nc4ccnc5cc(Cl)ccc45)c3)=NN2c2ccc(Cl)cc2)cc1` (stereo not given), the GI50 is 15.2 µM and the TGI was > 100 µM.

In the case of `COc1ccc(/C(C)=C(\c2ccc(Cl)cc2)c2ccc(OCCN3CCCCC3)cc2)cc1F`, the GI50 was 4.67 µM and the TGI is > 16.7 µM.

Regarding `COc1ccc(/C=C(\NC(=O)c2ccccc2)c2nc3ccccc3[nH]2)cc1`, the TGI is > 100 µM.

For the compound `COc1ccc2nccc(C3OC(=O)N4CCC(=O)CC34)c2c1` (stereo not given), the TGI was > 100 µM.

For `CC1CCCC2(O1)OC1CC(=O)OC1C1=C2C(=O)c2ccccc2C1=O` (stereo not given), the TGI is 31.6 µM.

On to `COc1cc(OC)cc(N(C)Cc2cnc3nc(N)nc(N)c3c2C)c1`, for which the TGI was > 100 µM.

For `CCN1CCc2sc3[nH]c(=S)n(C)c(=O)c3c2C1`, the TGI is > 100 µM.

Regarding `C=C(Cl)C(Cl)(CBr)CCC(Cl)C(C)C` (stereo not given), the TGI stood at 15.2 µM.

On to `COc1cc2c(oc(=O)c3c4oc([Si](C)(C)C)cc4cc(OC)c23)c2cccc(O)c12`, for which the TGI was > 100 µM.

Consider `COc1ccc(/C=C2\CC(C)CC3C2=NN(C(C)=O)C3c2ccc(OC)c(OC)c2)cc1OC` (stereo not given), for which the GI50 is 32.9 µM and the TGI was > 100 µM.

For `CN(C)CCCN1c2ccc3ccccc3c2Sc2cccc(Cl)c21`, the TGI is 16.8 µM.

On to `C=CCn1c(=O)c(-c2ccccc2)c(O)c2ccccc21`, for which the TGI was > 100 µM.

On to `Cn1cc(C2=C(c3cn(CCCSC(=N)N)c4ccccc34)C(=O)NC2=O)c2ccccc21`, for which the GI50 is 3.27 µM and the TGI is 14.7 µM.

On to `Cn1cnc2nc(Cl)nc(Cl)c21`, for which the GI50 was 9.25 µM and the TGI was 47.1 µM.

Take `COc1ccc(-c2nccn2-c2cc(OC)c(OC)c(OC)c2)cc1`: the GI50 is 12.8 µM and the TGI is > 100 µM.

On to `C[N+]12C=CC=C1C(N1CCCC1)c1sc(-c3ccc(Cl)cc3)cc12` (stereo not given), for which the TGI is > 100 µM.

For `Cn1c([N+](=O)[O-])cnc1/C=C1\Oc2ccc(Cl)cc2C1=O`, the GI50 is 2.99 µM and the TGI was found to be 11.4 µM.

For the compound `CSc1nc(Cl)c2c(n1)Sc1ncnn1C2O` (stereo not given), the TGI was 29.6 µM.

Turning to `CC(C)(Oc1ccc(C2C[C@H]2Cl)cc1)C(=O)O` (stereo not given in full), the TGI is > 100 µM.

For `NC(=O)NOCC1NC(=O)NC1=O` (stereo not given), the TGI is > 100 µM.

For the compound `CCOc1ccccc1Nc1nc(C)c(C(=O)CC(=O)C(=O)Nc2ccccc2)s1`, the TGI was > 100 µM.

Turning to `NC(N)=NS(=O)(=O)c1ccc(NC(=O)c2c3ccccc3nc3ccccc23)cc1`, the TGI was > 100 µM.

As for `CC(=O)NC(Cc1ccccc1)C(=S)N1CCCC1` (stereo not given), the TGI was > 100 µM.

As for `O=C(NC(c1ccccc1)C(O)C(=O)OCc1ccc2c(c1)C(=O)c1ccccc1C2=O)c1ccccc1` (stereo not given), the TGI was > 79.9 µM.

Take `COCN1C(=O)[C@@H]2C[C@@H](OC/C=C/CBr)CN2C(=O)c2ccccc21`: the TGI was 33.2 µM.

On to `Cc1ccc(-c2cn3c(nc4ccccc43)c(C)n2)cc1`, for which the TGI was > 100 µM.

For `COc1c(-c2ccc3c(c2)OCO3)oc2cc3c(c(OC)c2c1=O)OCO3`, the TGI amounted to 48.5 µM.

Turning to `COc1ccc(C(=O)CC(Cl)=C(Cl)Cl)cc1`, the GI50 was > 100 µM and the TGI is > 100 µM.

Consider `C[Si](C)(C)C1=C2C(=O)c3ccccc3C(=O)C2=C([Si](C)(C)C)[C@@H]2CCCC[C@H]12`, for which the TGI was > 100 µM.

On to `Cc1cn2cc(-c3ccncc3)nc2s1`, for which the TGI is > 100 µM.

`Oc1ccc(-c2nc(-c3ccc4oc5ccc(-c6[nH]c(-c7ccc(O)cc7)nc6-c6ccccc6)cc5c4c3)c(-c3ccccc3)[nH]2)cc1`: the GI50 is 13.9 µM and the TGI worked out at 36.6 µM.

On to `O=c1[nH]c2cccccc-2c1-c1nc2ccccc2[nH]1`, for which the TGI was > 100 µM.
